Measured values taken from a collection of fitness landscapes (doi:10.1016/j.celrep.2020.107928).
Whole data set: some 81,000 sequences, median “one-hybrid fitness for binding NBS DNA” near -0.1, cut for the highest 2% near 0.36. Some of the results follow.

B1: Caulobacter ParB omega fusion; a variant is named by its letters at X, in order, B8GW30 (parent)
chain: MESVVVGEPGMSEGRRGLGRGLSALLGEVDAAPAQAPGEQLGGSREAPIEILQRNPDQPRRTFREEDLEDLSNSIREKGVLQPILVRPSPDTAGEYQIVAGERAWRAAQRAGLKTVPIMVRELDDLAVLEIGIIENVQRADLNVLEEALSYKVLMEKFERTQENIAQTIGKSXSHVANXMRLLXLPDEVQSYLVSGELTAXHARAIAAAADPVALAKQIIEGGLSVRETEALARKAPNLSAGKSKGGRPPRVKDTDTQALESDLSSVLGLDVSIDHRGSTGTLTITYATLEQLDDLCNRLTRGI

Variants of: B1
Assay: one-hybrid fitness for binding NBS DNA (the Noc-binding site; scaled: cognate 1, non-cognate 0); higher = stronger binding
Conditions: with NBS DNA site
Method in brief: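 On M9-minus-histidine containing 0.1 mM IPTG and 5 mM 3-AT, E. coli USO cells with a HIS3 reporter, site 19 bp from the promoter, grew 48 hours at 37°C to select Caulobacter ParB libraries randomised at four specificity codons. Plasmids from before and after were Illumina-sequenced, with three replicate libraries pooled and variants under 10 reads left out. Fitness is the log change in variant-to-wild-type read ratio, rescaled against cognate and non-cognate.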

Row | Variant | one-hybrid fitness for binding NBS DNA
1 | TLSI | ≤ 0.2
2 | NHVF | ≤ 0.2
3 | SSKG | ≤ 0.2
4 | NQTC | ≤ 0.2
5 | YLFG | ≤ 0.2
6 | AERW | ≤ 0.2
7 | ATET | ≤ 0.2
8 | CHDT | ≤ 0.2
9 | EGAY | ≤ 0.2
10 | AWQF | ≤ 0.2
11 | RFVN | ≤ 0.2
12 | IKCT | ≤ 0.2
13 | EPYS | ≤ 0.2
14 | PEYR | ≤ 0.2
15 | KDKS | ≤ 0.2
16 | KKKI | ≤ 0.2
17 | ARQC | ≤ 0.2
18 | NVQW | ≤ 0.2
19 | QTDK | ≤ 0.2
20 | TSRR | 0.253
21 | FLTR | ≤ 0.2
22 | RRVY | 0.301
23 | AWPG | ≤ 0.2
24 | TRYA | ≤ 0.2

Row | Variant | one-hybrid fitness for binding NBS DNA
25 | TRIL | ≤ 0.2
26 | ERAK | ≤ 0.2
27 | NRCA | ≤ 0.2
28 | NYKS | ≤ 0.2
29 | SFEL | ≤ 0.2
30 | SVQG | ≤ 0.2
31 | CGSD | ≤ 0.2
32 | RIPF | ≤ 0.2
33 | KYRV | ≤ 0.2
34 | ADGR | ≤ 0.2
35 | TDRL | ≤ 0.2
36 | NFSF | ≤ 0.2
37 | GESY | ≤ 0.2
38 | SIIN | ≤ 0.2
39 | TMIC | ≤ 0.2
40 | CHNG | ≤ 0.2
41 | KAYT | ≤ 0.2
42 | GTGM | ≤ 0.2
43 | ASGL | ≤ 0.2
44 | HARE | ≤ 0.2
45 | SDRW | ≤ 0.2
46 | DVKR | ≤ 0.2
47 | FPVV | ≤ 0.2
48 | RLRL | ≤ 0.2

Row | Variant | one-hybrid fitness for binding NBS DNA
49 | DWLG | ≤ 0.2
50 | WPLF | ≤ 0.2
51 | PAPS | ≤ 0.2
52 | GPKY | ≤ 0.2
53 | NDCC | ≤ 0.2
54 | LEAR | ≤ 0.2
55 | ARVC | ≤ 0.2
56 | RVEY | ≤ 0.2
57 | RYGR | 0.432
58 | EFGP | ≤ 0.2
59 | CRPN | ≤ 0.2
60 | RPNK | ≤ 0.2
61 | STVM | ≤ 0.2
62 | HCMT | ≤ 0.2
63 | HMKR | ≤ 0.2
64 | PCEH | ≤ 0.2
65 | SAIH | ≤ 0.2
66 | RRSI | 0.213
67 | YSKT | ≤ 0.2
68 | RTHY | 0.208
69 | YTKL | ≤ 0.2
70 | GYAC | ≤ 0.2
71 | HRSC | ≤ 0.2
72 | NKYR | ≤ 0.2

Row | Variant | one-hybrid fitness for binding NBS DNA
73 | SQDI | ≤ 0.2
74 | PALP | ≤ 0.2
75 | TQPR | ≤ 0.2
76 | GIMC | ≤ 0.2
77 | LRMI | ≤ 0.2
78 | VCER | ≤ 0.2
79 | GTSN | ≤ 0.2
80 | NSQD | ≤ 0.2
81 | PIMH | ≤ 0.2
82 | HMRS | ≤ 0.2
83 | PLPT | ≤ 0.2
84 | CRDS | ≤ 0.2
85 | LTNA | ≤ 0.2
86 | AYCS | ≤ 0.2
87 | QVAD | ≤ 0.2
88 | WMLC | ≤ 0.2
89 | AHTA | ≤ 0.2
90 | KVML | ≤ 0.2
91 | AFFE | ≤ 0.2
92 | TMPR | ≤ 0.2
93 | ETTN | ≤ 0.2
94 | NKGM | ≤ 0.2
95 | GSYA | ≤ 0.2
96 | WKHR | ≤ 0.2

Row | Variant | one-hybrid fitness for binding NBS DNA
97 | TVLS | ≤ 0.2
98 | AAMG | ≤ 0.2
99 | QVKD | ≤ 0.2
100 | RWIS | ≤ 0.2
101 | NWIG | ≤ 0.2
102 | HMCG | ≤ 0.2
103 | RKTF | ≤ 0.2
104 | APGT | ≤ 0.2
105 | TFRI | ≤ 0.2
106 | LTEV | ≤ 0.2
107 | AYAF | ≤ 0.2
108 | RTDE | ≤ 0.2
109 | PSMV | ≤ 0.2
110 | IAPK | ≤ 0.2
111 | HYVL | ≤ 0.2
112 | ALIA | ≤ 0.2
113 | SFPT | ≤ 0.2
114 | CYYT | ≤ 0.2
115 | KNWG | ≤ 0.2
116 | RHYW | ≤ 0.2
117 | ILFW | ≤ 0.2
118 | DTLN | ≤ 0.2
119 | VMTN | ≤ 0.2
120 | LRYG | ≤ 0.2

Row | Variant | one-hybrid fitness for binding NBS DNA
121 | GWPG | ≤ 0.2
122 | PHDI | ≤ 0.2
123 | QTND | 0.227
124 | KPYI | ≤ 0.2
125 | KPGC | ≤ 0.2
126 | HVTR | ≤ 0.2
127 | QHRQ | 0.33
128 | YVGY | ≤ 0.2
129 | PVLP | ≤ 0.2
130 | AHST | ≤ 0.2
131 | HNNE | ≤ 0.2
132 | TWYA | ≤ 0.2
133 | FKYS | ≤ 0.2
134 | SFPH | ≤ 0.2
135 | ARVR | ≤ 0.2
136 | FHID | ≤ 0.2
137 | CCRG | ≤ 0.2
138 | LAQL | ≤ 0.2
139 | PWGV | ≤ 0.2
140 | IHRA | ≤ 0.2
141 | VGAL | ≤ 0.2
142 | GPSS | ≤ 0.2
143 | WVRP | ≤ 0.2
144 | STQC | ≤ 0.2

Row | Variant | one-hybrid fitness for binding NBS DNA
145 | TRGT | 0.283
146 | NQTW | ≤ 0.2
147 | YKFG | ≤ 0.2
148 | VYEA | ≤ 0.2
149 | WNNE | ≤ 0.2
150 | NHPH | ≤ 0.2
151 | RGCT | ≤ 0.2
152 | DAYT | ≤ 0.2
153 | PNGG | ≤ 0.2
154 | GLQN | ≤ 0.2
155 | QDNE | ≤ 0.2
156 | ARYS | ≤ 0.2
157 | GGHP | ≤ 0.2
158 | AKDA | ≤ 0.2
159 | MLCC | ≤ 0.2
160 | SSVI | ≤ 0.2
161 | TSGA | ≤ 0.2
162 | RLIY | ≤ 0.2
163 | TRGL | ≤ 0.2
164 | KSID | ≤ 0.2
165 | HPLV | ≤ 0.2
166 | LIIM | ≤ 0.2
167 | MVVG | ≤ 0.2
168 | TGHA | ≤ 0.2

Row | Variant | one-hybrid fitness for binding NBS DNA
169 | GHER | ≤ 0.2
170 | QYAT | 0.427
171 | RIAM | ≤ 0.2
172 | EDRT | ≤ 0.2
173 | QFDS | ≤ 0.2
174 | GHAS | ≤ 0.2
175 | VSTI | ≤ 0.2
176 | HAGL | ≤ 0.2
177 | ATAR | ≤ 0.2
178 | TRHQ | ≤ 0.2
179 | KNHK | ≤ 0.2
180 | TMPG | ≤ 0.2
181 | SHNC | ≤ 0.2
182 | SMRH | ≤ 0.2
183 | QFQT | 0.243
184 | PFMR | ≤ 0.2
185 | YIES | ≤ 0.2
186 | VIHT | ≤ 0.2
187 | QAGT | 0.37
188 | DKDR | ≤ 0.2
189 | ERVL | ≤ 0.2
190 | QRQA | 0.611
191 | NGGS | ≤ 0.2
192 | TTQT | ≤ 0.2

Row | Variant | one-hybrid fitness for binding NBS DNA
193 | TRRR | 0.682
194 | TEYG | ≤ 0.2
195 | VCGS | ≤ 0.2
196 | NSHM | ≤ 0.2
197 | PLFC | ≤ 0.2
198 | QETR | ≤ 0.2
199 | MTYG | ≤ 0.2
200 | DHVS | ≤ 0.2
201 | ADIK | ≤ 0.2
202 | VTWV | ≤ 0.2
203 | PCAS | ≤ 0.2
204 | GNTG | ≤ 0.2
205 | RQMS | 0.297
206 | RQVN | ≤ 0.2
207 | YEHN | ≤ 0.2
208 | SQYR | ≤ 0.2
209 | GPMS | ≤ 0.2
210 | VQCT | ≤ 0.2
211 | CIKW | ≤ 0.2
212 | EKCM | ≤ 0.2
213 | DRRN | ≤ 0.2
214 | QITS | 0.283
215 | RLRE | ≤ 0.2
216 | PLPR | ≤ 0.2

Row | Variant | one-hybrid fitness for binding NBS DNA
217 | DHVG | ≤ 0.2
218 | PHVL | ≤ 0.2
219 | FLWS | ≤ 0.2
220 | SMRK | ≤ 0.2
221 | RHKV | 0.203
222 | NNES | ≤ 0.2
223 | SNTC | ≤ 0.2
224 | YSRF | ≤ 0.2
225 | TYHP | ≤ 0.2
226 | PIEP | ≤ 0.2
227 | QTAI | ≤ 0.2
228 | SQLV | ≤ 0.2
229 | RVPW | ≤ 0.2
230 | RVFL | ≤ 0.2
231 | GLIC | ≤ 0.2
232 | ATKR | 0.286
233 | HRNL | ≤ 0.2
234 | RWEC | ≤ 0.2
235 | YHPP | ≤ 0.2
236 | RTIL | ≤ 0.2
237 | VDKR | ≤ 0.2
238 | GATA | ≤ 0.2
239 | RCVY | ≤ 0.2
240 | VRHH | ≤ 0.2

Row | Variant | one-hybrid fitness for binding NBS DNA
241 | LIGM | ≤ 0.2
242 | TRML | ≤ 0.2
243 | CHTC | ≤ 0.2
244 | SQDR | ≤ 0.2
245 | FTEY | ≤ 0.2
246 | MGKN | ≤ 0.2
247 | LSIA | ≤ 0.2
248 | ANTT | ≤ 0.2
249 | NKYH | ≤ 0.2
250 | EVNS | ≤ 0.2
251 | CSKS | ≤ 0.2
252 | AIPD | ≤ 0.2
253 | VNEA | ≤ 0.2
254 | RMGN | ≤ 0.2
255 | CRCG | ≤ 0.2
256 | MVQL | ≤ 0.2
257 | DTNK | ≤ 0.2
258 | TKIS | ≤ 0.2
259 | NNTS | ≤ 0.2
260 | YNPS | ≤ 0.2
261 | AIRG | ≤ 0.2
262 | YLGV | ≤ 0.2
263 | NHTW | ≤ 0.2
264 | IATQ | ≤ 0.2

Row | Variant | one-hybrid fitness for binding NBS DNA
265 | GAWR | ≤ 0.2
266 | IHVA | ≤ 0.2
267 | RGND | ≤ 0.2
268 | MTSI | ≤ 0.2
269 | MWNR | ≤ 0.2
270 | QHHR | 0.571
271 | VQKT | ≤ 0.2
272 | LCPC | ≤ 0.2
273 | GKYR | ≤ 0.2
274 | QKAA | 0.319
275 | HICM | ≤ 0.2
276 | HTKC | ≤ 0.2
277 | CRQG | ≤ 0.2
278 | ITNW | ≤ 0.2
279 | TYTG | ≤ 0.2
280 | NERW | ≤ 0.2
281 | LFLL | ≤ 0.2
282 | GVVT | ≤ 0.2
283 | SEKT | ≤ 0.2
284 | VHKY | ≤ 0.2
285 | VYSL | ≤ 0.2
286 | DSIE | ≤ 0.2
287 | VNPM | ≤ 0.2
288 | DWFR | ≤ 0.2

Row | Variant | one-hybrid fitness for binding NBS DNA
289 | CTKA | ≤ 0.2
290 | VGFF | ≤ 0.2
291 | PTQC | ≤ 0.2
292 | CSSD | ≤ 0.2
293 | VRNA | ≤ 0.2
294 | ATHF | ≤ 0.2
295 | LRGY | ≤ 0.2
296 | TNLI | ≤ 0.2
297 | QFCY | ≤ 0.2
298 | MADN | ≤ 0.2
299 | YVHC | ≤ 0.2
300 | LPES | ≤ 0.2
301 | YTLF | ≤ 0.2
302 | SGLW | ≤ 0.2
303 | AATK | ≤ 0.2
304 | CWAL | ≤ 0.2
305 | DTMR | ≤ 0.2
306 | SCMF | ≤ 0.2
